Measurements: the supplement of paper PMC3334620
Over roughly 33,000 sequences, “E-score (-0.5 to 0.5)” has its median near -0.053; the highest 2% begin near 0.37. The list shows a part of the results.

Molecular target: Hap1 (UniProt P0CE41)
Experiment: PBM E-score (8-mer binding enrichment) (E-score (-0.5 to 0.5)); higher = stronger / more preferred TF binding; most listed sequences are background and not binding sites
Settings: protein concentration: 200 nM; construct: GST-DNA-binding domain
Protocol: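 Universal 'all 10-mer' protein binding microarrays (Agilent AMADID 015681) probed with GST-tagged S. cerevisiae TFs (full-length or DBD) made by in vitro transcription/translation (PURExpress), about 100-200 nM. Bound TF was detected with fluorescent anti-GST. Each ungapped 8-mer (which stands for itself and its reverse complement) is scored by the PBM enrichment score (E-score), a modified Wilcoxon-Mann-Whitney statistic from -0.5 to +0.5, computed with the Universal PBM Analysis Suite. Scale: above 0.35 generally sequence-specific binding.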

Sequence of UniProt P0CE41 (P0CE41 whole entry): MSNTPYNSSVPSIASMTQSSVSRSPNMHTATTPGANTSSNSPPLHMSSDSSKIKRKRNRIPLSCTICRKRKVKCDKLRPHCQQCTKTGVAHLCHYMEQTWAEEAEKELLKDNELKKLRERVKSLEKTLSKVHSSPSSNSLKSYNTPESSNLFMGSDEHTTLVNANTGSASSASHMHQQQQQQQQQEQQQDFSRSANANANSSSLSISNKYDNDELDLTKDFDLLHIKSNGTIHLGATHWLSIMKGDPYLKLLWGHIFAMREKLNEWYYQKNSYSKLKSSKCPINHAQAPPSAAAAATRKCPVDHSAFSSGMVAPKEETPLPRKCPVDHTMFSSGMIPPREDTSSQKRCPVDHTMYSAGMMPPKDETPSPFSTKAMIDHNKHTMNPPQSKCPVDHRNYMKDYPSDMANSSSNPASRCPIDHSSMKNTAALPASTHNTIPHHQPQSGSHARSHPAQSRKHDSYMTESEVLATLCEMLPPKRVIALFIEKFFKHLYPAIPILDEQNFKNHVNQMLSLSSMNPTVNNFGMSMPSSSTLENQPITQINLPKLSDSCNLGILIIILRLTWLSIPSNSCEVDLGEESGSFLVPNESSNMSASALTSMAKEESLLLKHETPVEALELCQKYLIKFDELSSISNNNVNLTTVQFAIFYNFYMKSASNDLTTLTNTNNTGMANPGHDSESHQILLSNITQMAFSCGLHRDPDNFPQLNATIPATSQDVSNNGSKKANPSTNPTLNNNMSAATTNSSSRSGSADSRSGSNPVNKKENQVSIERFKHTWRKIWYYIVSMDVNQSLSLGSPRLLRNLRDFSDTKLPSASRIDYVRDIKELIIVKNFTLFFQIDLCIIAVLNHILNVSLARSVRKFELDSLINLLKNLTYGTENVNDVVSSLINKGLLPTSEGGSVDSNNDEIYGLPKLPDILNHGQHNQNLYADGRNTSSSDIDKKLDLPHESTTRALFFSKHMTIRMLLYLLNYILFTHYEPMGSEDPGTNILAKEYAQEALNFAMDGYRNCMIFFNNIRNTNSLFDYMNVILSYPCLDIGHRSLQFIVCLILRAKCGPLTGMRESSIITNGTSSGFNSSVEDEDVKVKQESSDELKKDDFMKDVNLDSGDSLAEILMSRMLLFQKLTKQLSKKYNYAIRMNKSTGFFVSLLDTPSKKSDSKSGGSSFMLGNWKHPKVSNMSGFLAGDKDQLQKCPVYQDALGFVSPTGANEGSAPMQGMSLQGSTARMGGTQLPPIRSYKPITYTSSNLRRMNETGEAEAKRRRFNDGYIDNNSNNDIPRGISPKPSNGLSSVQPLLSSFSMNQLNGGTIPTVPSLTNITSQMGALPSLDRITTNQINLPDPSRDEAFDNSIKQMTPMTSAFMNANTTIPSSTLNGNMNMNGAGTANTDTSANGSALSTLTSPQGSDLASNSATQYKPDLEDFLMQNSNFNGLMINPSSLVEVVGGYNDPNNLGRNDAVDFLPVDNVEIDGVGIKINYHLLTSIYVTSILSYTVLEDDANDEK

First: AGGGGGCC
Second: CATTAGCA
The “PBM E-score” value of the first is lower: -0.211 for the first, -0.142 for the second.

First: TGACCTAA
Second: AGGTGACT
The “PBM E-score” value of the first is higher: -0.158 for the first, -0.258 for the second.

Compared with CTTTCCGC, ACTTATTC is lower in “PBM E-score” value: 0.194 for the first, 0.164 for the second.

Compared with ACCCGGTC, AAGCTTCG is lower in “PBM E-score” value: 0.222 for the first, 0.0819 for the second.

Going from TCGTGCAA to CGCATGAC, the “PBM E-score” value rises from -0.255 to -0.111.

Going from CCGGCTTC to GAGGGTGC, the “PBM E-score” value falls from 0.256 to 0.00201.

First: AAGTTGAT
Second: CCTCTCTC
The “PBM E-score” value of the first is higher: -0.0761 for the first, -0.241 for the second.

Compared with AGTGTCTG, ACTGATGC is higher in “PBM E-score” value: -0.21 for the first, -0.133 for the second.

Compared with CATAATCA, AGACACCC is lower in “PBM E-score” value: -0.0514 for the first, -0.165 for the second.

First: AATCAAGC
Second: CAACTTAC
The “PBM E-score” value of the first is lower: -0.214 for the first, -0.0151 for the second.

First: AGGTGTCG
Second: CTGGCCCA
The “PBM E-score” value of the first is higher: -0.00389 for the first, -0.198 for the second.

Compared with AGCCGCTA, CATCAGGA is lower in “PBM E-score” value: 0.112 for the first, 0.074 for the second.

Going from ATATGATA to GCACGGCA, the “PBM E-score” value falls from 0.123 to -0.0211.

Compared with AAATTCCA, TCAGAGCA is lower in “PBM E-score” value: 0.0643 for the first, -0.266 for the second.

First: GGGAGGTA
Second: GACTTAAC
The “PBM E-score” value of the first is lower: -0.00628 for the first, 0.0431 for the second.

First: ACTCAAAT
Second: ACAACAAC
The “PBM E-score” value of the first is higher: -0.18 for the first, -0.234 for the second.

First: ACGCTGTG
Second: AATTAATA
The “PBM E-score” value of the first is lower: -0.159 for the first, 0.103 for the second.

Compared with ATAATATA, ATCACGTG is lower in “PBM E-score” value: 0.0224 for the first, -0.0845 for the second.

First: CGCTCCAG
Second: GAGTGCGC
The “PBM E-score” value of the first is lower: 0.00737 for the first, 0.0129 for the second.

First: AGTAGTTC
Second: CACAGGAC
The “PBM E-score” value of the first is higher: 0.0511 for the first, 0.00956 for the second.

Going from CAAGCGCC to AGGGTTGC, the “PBM E-score” value falls from 0.17 to -0.236.

Going from ACTTTAGG to AAATCGAT, the “PBM E-score” value rises from -0.156 to -0.142.

Going from GTCGGGCA to ACCTAGAG, the “PBM E-score” value falls from 0.108 to -0.208.

Compared with GACTCCGC, CCTCTCAG is lower in “PBM E-score” value: 0.174 for the first, -0.359 for the second.

Going from GGCGCTAA to CTTTGCAA, the “PBM E-score” value falls from 0.172 to -0.0923.

First: ACCGGAAC
Second: ACCCGTTG
The “PBM E-score” value of the first is higher: 0.403 for the first, 0.0238 for the second.

First: AGACGTTG
Second: GAAAAGTC
The “PBM E-score” value of the first is lower: -0.0723 for the first, 0.0327 for the second.

Compared with AAGAGAGG, TACATGGA is higher in “PBM E-score” value: -0.141 for the first, 0.122 for the second.

Going from AAATGTTG to AGAATGCT, the “PBM E-score” value falls from -0.267 to -0.273.

Going from CCAGCCAC to ATTATTGA, the “PBM E-score” value falls from -0.0766 to -0.15.

Compared with ATGAAACG, GAGCCTAC is lower in “PBM E-score” value: -0.0187 for the first, -0.0381 for the second.

First: CCCCGTAA
Second: CCTCACGA
The “PBM E-score” value of the first is higher: 0.139 for the first, -0.313 for the second.

Going from TGCGAAAA to TAACATTA, the “PBM E-score” value falls from -0.00129 to -0.0125.

First: AGCAAAGC
Second: ATAATTCC
The “PBM E-score” value of the first is lower: -0.0791 for the first, 0.309 for the second.

First: GTCCGGGA
Second: ACCTACCC
The “PBM E-score” value of the first is higher: 0.38 for the first, -0.0199 for the second.

Compared with ATCTCACA, CCAATATC is higher in “PBM E-score” value: -0.307 for the first, 0.117 for the second.

Compared with TAGGACCA, CGTGCGAC is lower in “PBM E-score” value: -0.0211 for the first, -0.0831 for the second.

Compared with CATCCAAA, GGTTCTCA is lower in “PBM E-score” value: -0.16 for the first, -0.221 for the second.

Going from CACTTCGG to AGTGGCAG, the “PBM E-score” value falls from 0.257 to -0.226.

Going from ATTATATG to CTCAATGA, the “PBM E-score” value rises from -0.112 to -0.0841.

Going from CCCCGTAG to ACCTATGG, the “PBM E-score” value falls from 8e-05 to -0.0323.

First: CTATCCCA
Second: GAGAAACC
The “PBM E-score” value of the first is lower: -0.245 for the first, 0.0923 for the second.

Going from AGACGAGG to AGTAATTA, the “PBM E-score” value falls from -0.0977 to -0.134.

First: CCTCCTTA
Second: ACGTGTGA
The “PBM E-score” value of the first is lower: -0.228 for the first, -0.223 for the second.

First: ACTGTTCG
Second: ATAACGCC
The “PBM E-score” value of the first is lower: 0.0461 for the first, 0.316 for the second.

Compared with ATCGCGTA, TAAACGTA is lower in “PBM E-score” value: -0.00116 for the first, -0.178 for the second.

Going from AACTCTTC to AACCGGTG, the “PBM E-score” value rises from 0.0217 to 0.329.

Going from TAGTTTGA to CTCGTACA, the “PBM E-score” value falls from -0.0367 to -0.0854.

Compared with CGGGAATC, GCTGGGCC is lower in “PBM E-score” value: 0.318 for the first, -0.0162 for the second.

First: TATTCACA
Second: CACTCGCG
The “PBM E-score” value of the first is higher: 0.0793 for the first, -0.0188 for the second.

Going from ATGTGGAA to GGAATAAC, the “PBM E-score” value rises from -0.0872 to 0.266.

Compared with CTGGTTAA, CCTCTTAG is higher in “PBM E-score” value: -0.112 for the first, 0.0746 for the second.

Compared with TAGCGCCA, ACTTCAGA is lower in “PBM E-score” value: -0.128 for the first, -0.14 for the second.

Going from CAACTGAG to GACAACCA, the “PBM E-score” value falls from -0.0425 to -0.163.

Going from CGGTCAAC to AGACGCCG, the “PBM E-score” value falls from 0.264 to 0.182.
